Sequences with one replicate were seen in a single cluster, so their values are uncertain.
Tested on: ATP
Experiment: switch fluorescence ratio, 500 uM ATP over buffer (Cy3 cluster intensity, sum of 5 cycles each) (fold (ratio)); higher = stronger signal-on switching upon ATP binding; sequences stand for … in TCGTCGGCAGCGTCAGATGTGTATAAGAGACAGTTTTTTTTTTTTTTTTTTTTTTTTT…TC
Conditions: aptamer strand: ATP DNA aptamer (quencher-CACCTGGGGGAGTATTGCGGAGGAAGG + anchor), 100 nM annealed; ATP concentration: 500 uM; one replicate
Outline: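 Per cluster, summed Cy3 intensity from the target cycles was divided by that from the buffer cycles to give the fluorescence ratio, then averaged per switch-domain sequence. Clusters outside 100-1000 RFU were excluded. The Cy3-labelled switching-strand clusters, on a modified Illumina MiSeq flow-cell, were annealed to 100 nM quencher-labelled ATP aptamer and imaged in selection buffer, then after 15 min with 500 uM ATP at 22 °C, for five cycles with NaOH stripping and re-annealing between them.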
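Note: ATP exposure 15 min at 22 °C before imaging.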

Sequence | switch fluorescence ratio
CCATGTTCAT | 1.02
AACAAGTGCA | 1.05
AGCTTTAAGT | 0.984
CGAGCAGGGG | 1.13
GGATAACAG | 0.986
ACAGTAAAGT | 1.04
TTGTCTGGG | 0.985
AATTGTGTCA | 1
GTGAAGCTCC | 1.1
TATGATGCAG | 0.99
ATCAAGAAGT | 1.01
GGATTCCTTT | 0.994
TGGTGAGCTT | 0.925
GAATGCCTTC | 1.03
GCAGGCGAGG | 1.03
ACGGATGCA | 1.05
TTATCTTCGG | 0.968
TTCGGAAATC | 1.9
TAAATGCACA | 1.04
ATTTACAGT | 1.06
AAATTAGGAG | 0.956
TATATTATGT | 1.01
AAAGTCGTGG | 0.991

Sequence | switch fluorescence ratio
CGTTTGGATG | 1.03
CTCGAATAGC | 1.18
GCTGCGCTGT | 1.37
TCAGGGTAC | 1.06
CCCGTGCGAT | 1.01
GGCTTAGCGA | 1.02
CAGATTAGCG | 0.955
CTATGTAGGG | 1
GCCTATGTAG | 1.01
GGATTTAAGG | 0.973
TTTACTTGGT | 1.03
GACTTGGAGC | 1.03
CGTCTACGGT | 1
TTAATAACAA | 1.03
GATCCGCCGG | 1.12
AGTGGGTCGT | 0.982
GATGGCCAC | 1
GCGATAGTCT | 1
CGTTATATAG | 1.03
TGAGGGCGT | 1.05
GAGATTAAC | 1.01
CGCATGGATC | 1.08
GGTGTGCAGG | 1.03

Sequence | switch fluorescence ratio
TCATTCAGAG | 0.985
GAGACATTTA | 1.04
TAAAGTTGT | 1.01
TAAATTTG | 0.989
TGAGCTGATC | 1.28
ACTATTGTA | 1.01
TTAGAAACGA | 0.993
CAGACTGCTT | 0.963
CTGTCTAAAT | 1
CAGAACTTGA | 0.875
CTTATTTAAT | 0.999
ACACGGAGCC | 1.07
ATCCGGATGA | 0.978
CAAAAGAAGG | 0.974
TATACCACAC | 1.4
CGAACCGACT | 1.13
TATGGTGCGG | 0.996
ACGTCTGGGG | 1.01
AATCATGGTG | 1.04
AAAAATCCGA | 1
CAGATCATGT | 0.969
GCAATGTACG | 1.22
ACTTAAGTAT | 1.02

Sequence | switch fluorescence ratio
CACCTGCCAC | 1.37
TGAGAGGTCG | 1.05
TAGGATGAG | 1.03
ATTATGCGC | 0.99
CCAAGAGCAG | 1.46
GGACACTTGA | 1.04
CGGACTAAAG | 1.03
TTAAGCCAG | 0.993
CGGAGATCCT | 1.05
CGGGGCGGT | 1
AGGGTAACAG | 1.01
CGTGGTATGT | 0.963
AATGGGGAGC | 0.954
TCCCCCGTTG | 2.79
CTTTATCATC | 0.99
GGAGGTCGCA | 1.02
TTGAAGGTCG | 1.02
CTCTTACTGC | 1.05
CAACCTTAGG | 1.01
CGCAACACGG | 4.07
ATCGCTAGTC | 1.06
GGGCTCTGGG | 1.01
ATAAATCAGA | 0.996

Sequence | switch fluorescence ratio
TAAGATGAGG | 0.96
GGACAGGGTA | 0.974
TCCTGTAATA | 1.62
CATCGTATA | 0.977
TTCCCTCATG | 1.09
TCACCACAGC | 1.08
CAATAGGTCT | 1.01
TCAAGATGGG | 0.983
TGAGGTAACA | 0.975
GCAAACGCTC | 1.27
GTACAAAGCT | 0.986
ACCAGGAATA | 1
AGCAGATTGC | 1.04
AGGATAACCA | 1.02
AAGAAAAGGC | 1.14
CGATGTGGA | 1.05
CCCGATCGAT | 1.05
TCCCATCCCG | 1.02
AGAAGCTTAA | 1.02
GTTGTCTACG | 0.972
GCTTAAGGTT | 0.964
GTTCGTGAAT | 0.994
AGCTAGCGCC | 1.02

Sequence | switch fluorescence ratio
ATGCGACACC | 1.07
TTGGTGCGGT | 0.976
GCGTTTGTTG | 0.933
AAGAGGCACT | 1
GCTCTGATCG | 1.05
GGTGTGGGTT | 1.04
GGTGAACTTA | 1.01
AGGCTGTTAT | 1.03
TAAGTAATCA | 1.02
TACATGGCGT | 1.02
ATGGAGATCG | 0.977
GCAACCGCGG | 0.986
TTAAGGCAGC | 1.01
AATGCCATTT | 0.996
CTTGATTCA | 0.992
TACGGCCTGT | 1.01
CAATGAAGCT | 0.982
CCTTTTGCGG | 1.07
CAAATAGGTT | 0.986
CATGCCCCTG | 1.08
ATTTTATTAA | 0.931
CGCCAAGCGG | 1.01
ATGAGTGCAA | 1.05

Sequence | switch fluorescence ratio
TTGGGATTCC | 1.03
TCTACTAGCT | 1.02
GTAGCAGGTA | 1.07
ACGTCTGGCG | 0.967
CGCTAGGCGC | 0.988
CGGGCGTGTC | 0.964
TCAGTTTAGG | 1
ATAAATCTCG | 1.04
GAGAAAGTCA | 0.988
AGTGTAGCCG | 1.03
AAGGGCCGTA | 0.956
ACGGGAGGGA | 1.02
TCATTACTTT | 1.02
TCGCTTCAAC | 1.27
GAGCGTAATG | 1.03
TATTATAAGC | 1.01
GAATCAGCCC | 0.984
CCGTGGTGTG | 1.07
CTACCTGACC | 1.81

— the supplement of paper PMC10126150
